# Reference: PubChem BioAssay AID1479 (National Center for Advancing Translational Sciences (NCATS), 2009)
# Among all 280,000 compounds or so, about 820 (0.29%) were called active. Inconclusive results, whose numbers are uncertain, are shown with a selection of clear calls. Calls come from the whole dose curve; as a rule, active = well fitted curve in either direction with a large enough effect; inconclusive = small, poorly fitted or top-dose-only effect; inactive = flat fitted curve, though single readings scatter. No potency is given beside an inconclusive call; the fits are too rough.
# Assay: Total Fluorescence Counterscreen for Inhibitors of the Interaction of Thyroid Hormone Receptor and Steroid Receptor Coregulator 2
# Conditions: TRb/SRC2 Texas Red total fluorescence interference; series mostly up to 106 µM
# How it was run: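 Human TRb ligand-binding domain at 0.6 uM with 20 nM Texas Red SRC2 peptide in Tris buffer containing 1 uM T3 and 5% DMSO, incubated with compound 5 h at ambient temperature. Total fluorescence (555/632 nm) calculated as parallel + 2 × perpendicular.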
# Potency is the fitted concentration of half-maximal effect; tags give direction and shape of the fitted curve or compound fluorescence and quenching.
row,Compound,Potency
1,C=CCn1c(-c2cc(-c3ccc(C)cc3)nc3ccccc23)n[nH]c1=S,inactive
2,S=c1[nH]nc(-c2ccccn2)n1/N=C/c1ccc(Br)s1,"inconclusive [falling, full curve, poor fit]"
3,CNc1nc(-c2c[nH]c3ccccc23)cs1,"inconclusive [fluorescent, partial curve]"
4,Cc1ccc(C)c(NC(=O)Cn2c(=O)n(Cc3ccc4c(c3)OCO4)c(=O)c3ccccc32)c1,"inconclusive [falling, full curve, poor fit]"
5,Oc1cccc2ccc[n+](CC(O)Cn3c4ccccc4c4ccccc43)c12 (stereo not drawn),active: 0.891 µM [quencher]
6,Cc1ccccc1CNC(=O)c1ccc(CN2CC(=O)N3CCCCC3C2=O)cc1 (stereo not drawn),"inconclusive [quencher, full curve]"
7,CCOc1ccccc1CNc1ncnc2c1nc1n2CCCC1,"inconclusive [quencher, full curve]"
8,CCc1ccc(NC(=O)c2cc(-c3cccs3)on2)cc1,"inconclusive [rising, single point]"
9,O=C(CN1CCSc2ccccc21)N1CCN(c2ccccc2)CC1,inactive
10,COc1cc(/C=N/Nc2nc3c(c(=O)n(C)c(=O)n3C)n2Cc2ccccc2)ccc1OC(=O)c1ccco1,inactive
11,CCOC(=O)c1cnc2cc(C(F)(F)F)ccc2c1N1CCN(c2ccc(F)cc2)CC1,"inconclusive [quencher, full curve]"
12,COc1ccc(CNc2ccc3cc(S(=O)(=O)N4CCCCC4)ccc3n2)cc1,inactive
13,COc1ccc(NC(=O)c2nnn(Cc3nc(-c4cc(OC)c(OC)c(OC)c4)oc3C)c2C)cc1,"inconclusive [falling, full curve, poor fit]"
14,O=C(NC1CCCCCC1)c1cc2c(Cl)nc3ccccc3c2s1,"inconclusive [quencher, full curve]"
15,CCOC(=O)c1oc2c(CN3CCN(C)CC3)c(O)ccc2c(=O)c1-c1ccc(Br)cc1,"inconclusive [falling, partial curve, poor fit]"
16,COC(=O)[C@@H]1CC[C@H](C)[C@@H](c2ccc(C)cc2)N1C(=O)c1ccc(/C=N\O[C@@H](C)c2cc(-c3c(C)cc(C)cc3C)no2)cc1,"inconclusive [quencher, full curve]"
17,N#Cc1sc2nc(-c3cccs3)cc(-c3ccc(Cl)cc3)c2c1N,inactive
18,O=C(O)/C=C/C(=O)Nc1ccc2c(c1)C(=O)c1ccccc1C2=O,"inconclusive [quencher, partial curve]"
19,COc1cc2oc(=O)c(CC(=O)N3CCCCC3)c(C)c2cc1OC,inconclusive
20,CCCC(=O)N(c1ccc2oc(C)c(C(C)=O)c2c1)S(=O)(=O)c1ccc(C)cc1,"inconclusive [falling, partial curve, poor fit]"
21,Cc1nn(-c2ccccc2)c(N2CCCC2)c1/C=C1\N=C(c2ccc(OC(C)C)cc2)OC1=O,inactive
22,Cc1cc(N/N=C\c2ccccc2)nc(-c2ccccc2O)n1,"inconclusive [falling, partial curve, poor fit]"
23,CCOc1cc(C2c3c(oc4ccc(F)cc4c3=O)C(=O)N2Cc2ccco2)ccc1O (stereo not drawn),"inconclusive [falling, full curve, poor fit]"

row,Compound,Potency
1,CSc1ncc(C(=O)NCc2ccccc2)c(-c2ccccc2)n1,"inconclusive [quencher, full curve]"
2,CC(C)(C)n1cnc2cc(NCc3ccccc3Cl)ccc21,"inconclusive [falling, full curve, poor fit]"
3,O=C(O)CCC/C=C\C[C@@H]1[C@@H](CC[C@@H](O)CCc2ccccc2)[C@H](O)C[C@@H]1O,inactive
4,Cc1cc2ncn(C(=O)N3CCOCC3)c2cc1C,inactive
5,CC1(C)OC1COc1c2ccoc2cc2oc(=O)ccc12 (stereo not drawn),"inconclusive [rising, single point]"
6,CC(=O)Nc1ccc(NC(=O)c2ccccc2Sc2ccc([N+](=O)[O-])cc2Cl)cc1,inactive
7,COC(=O)c1ccc(Cn2c(SCc3ccccc3F)nc3ccncc32)cc1,"inconclusive [quencher, full curve]"
8,Cc1cc(-c2n[nH]c(=S)n2Cc2ccco2)n(C)n1,"inconclusive [falling, full curve, poor fit]"
9,CCSc1ncc(Cl)c(C(=O)N(Cc2ccc(N(C)C)cc2)Cc2ccco2)n1,"inconclusive [falling, full curve, poor fit]"
10,COc1ccnc(CSC(N)=Nc2ccccc2C(F)(F)F)c1,inactive
11,CCOc1cc(CNc2ccc(C(=O)O)cc2)ccc1OCc1ccccc1,"inconclusive [falling, partial curve, poor fit]"
12,COc1cc(/C=N/Nc2ccccc2)ccc1OC(=O)c1cccs1,"inconclusive [falling, full curve, poor fit]"
13,Cc1ccc(C(=O)CCC(=O)Nc2ccc(C)cc2C)cc1,"inconclusive [falling, full curve, poor fit]"
14,CCOc1ccc(CC(=NCCO)C2=C(O)CC(C)(C)CC2=O)cc1OCC,"inconclusive [falling, full curve, poor fit]"
15,COc1cccc(C(=O)Nn2c(C)nnc2-n2nc(C)cc2C)c1,inactive
16,CCN(CC)S(=O)(=O)c1ccc(C)c(NC(=O)COc2ccc3c(C)cc(=O)oc3c2)c1,"inconclusive [falling, full curve, poor fit]"
17,Cc1ccc(NC(=O)Cn2cc(S(=O)(=O)N3CCCC3)c(S(=O)(=O)N3CCCC3)c2)cc1F,"inconclusive [falling, partial curve, poor fit]"
18,COc1ccc2c(c1)C(=O)[C@@H](OC(=O)NCCOc1ccccc1)[C@H](c1ccc(OC)c(Br)c1)O2,inactive
19,COc1ccc2c(CC(=O)OCC(=O)Nc3ccc4c(c3)OCO4)coc2c1,inactive
20,CCN(CC)C(=O)CSc1nc2cc3c(cc2c(=O)n1Cc1ccc2c(c1)OCO2)OCO3,inactive
21,O=C(Nc1ccc(F)cc1F)c1cc(-c2ccc(Cl)cc2)on1,"inconclusive [falling, partial curve, poor fit]"
22,Cc1cc2cc(CNC(=O)c3ccc(S(=O)(=O)N4CCOCC4)cc3)ccc2n1C,active: 44.7 µM [fluorescent]
23,CCOC(=O)C1=C(C)Nc2nnnn2C1c1c[nH]c2ccccc12 (stereo not drawn),inactive

row,Compound,Potency
1,COc1ccc(CCn2c(O)cc3nn(-c4nc5ccccc5s4)c(=O)c-3c2C)cc1,active: 22.4 µM [quencher]
2,Cn1c(C(C#N)C(=O)c2sc3ccccc3c2Cl)nc2ccccc21 (stereo not drawn),inactive
3,Cc1ccc(S(=O)(=O)c2c(Nc3cc(C)ccc3C)sc(C(=O)c3ccc4c(c3)OCO4)c2N)cc1,"inconclusive [falling, partial curve, poor fit]"
4,Cc1ccc(Cl)cc1NC(=O)N1CCC2(CC1)Oc1ccccc1C(=O)N2Cc1ccccc1F,active: 35.5 µM [quencher]
5,Cc1cccc(NC(=O)c2sc3nc(-c4ccccc4)cn3c2C)c1C,"inconclusive [falling, full curve, poor fit]"
6,O=C(NCc1ccc(-c2nc3ccccc3s2)cc1)c1ccco1,active: 0.0006 µM [quencher]
7,O=C(Cn1c(=O)c2cc(Cl)ccc2n2nncc12)Nc1ccccc1,"inconclusive [quencher, full curve]"
8,COc1cc2nc(CN3CCC(Cc4ccccc4)CC3)[nH]c(=O)c2cc1OC,"inconclusive [rising, single point]"
9,CCOC(=O)CSc1nc2ccccc2c(=O)n1CCc1ccc(OC)c(OC)c1,"inconclusive [falling, full curve, poor fit]"
10,CCC1CN(C(=O)N2CCC(C(=O)NCCN(CC)CC)CC2)c2ccccc2O1 (stereo not drawn),"inconclusive [falling, full curve, poor fit]"
11,CC(CNC(=O)Cn1ccc2cc(S(=O)(=O)N3CCCCCC3)ccc21)c1ccccc1 (stereo not drawn),inactive
12,Cc1ccc(NS(=O)(=O)c2cc(N)ccc2Cl)c(C)c1,inactive
13,CCOC(=O)c1ccc(N2CCN(c3cccc(Cl)c3)CC2)c(NC(=O)Nc2ccc(OC)cc2OC)c1,inactive
14,COc1ccc(OC)c(C2N=C(N)Nc3nc4ccccc4n32)c1 (stereo not drawn),"inconclusive [falling, full curve, poor fit]"
15,COc1cccc(-n2cc(C(=O)NCc3ccccc3OC)c3ccccc3c2=O)c1,"inconclusive [falling, partial curve, poor fit]"
16,CCc1cc2c(cc3c(=O)n(CC(=O)NCCc4ccc(OC)c(OC)c4)ncn32)s1,"inconclusive [quencher, full curve]"
17,COc1cc2ncc(-c3ccccc3)nc2cc1OC,inactive
18,O=C(CCn1c(=O)c2cccn2c2ccc(F)cc21)NCCc1ccccc1,inconclusive
19,CCCCCCCCCCCCCC/C(C(=O)O)=C(\C)C(=O)O,"inconclusive [quencher, full curve]"
20,Cc1ccc(-c2cn3cccnc3n2)cc1NC(=O)c1cccs1,"inconclusive [falling, partial curve, poor fit]"
21,O=C1c2ccccc2C(=O)c2c1ccc1c(=O)n(C3CCCCC3)[nH]c21,inactive
22,COc1ccccc1NC(=O)Cn1c(=O)n(Cc2ccco2)c(=O)c2cccnc21,"inconclusive [falling, full curve, poor fit]"
